From PubChem BioAssay AID1159614 (National Center for Advancing Translational Sciences (NCATS), 2016) come the findings set out here.

The campaign covered roughly 45,000 compounds. About 65 (0.1%) were called active. Calls follow the shape of the dose curve; as a rule, active = well fitted activation curve with a large enough effect; inconclusive = small, poorly fitted or top-dose-only effect; inactive = no such curve, though single readings can be large or run the other way. Some of the results follow.

The assay concerns the target Galactocerebrosidase (Homo sapiens) (UniProt P54803). Briefly: A Novel Cell-Based Assay to Identify Small Molecules for B -Galactocerebrosidase. Also: 0% is about no effect; nearly all actives have a fitted effect of over 65% in size. Conditions: 145M-Twi-hGALC-G270D cells (Twitcher mouse brain line with human GALC G270D), HMU-beta-Gal fluorescence, 48 h; series mostly up to 57.5 µM; activation: at the top concentration. A digest of the protocol: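 Fluorescence readout: HMU-β-gal cleavage by mutant GALC (0.1 mM final, citrate/phosphate pH 5.2 with 1 mg/mL taurocholate), stopped with carbonate/bicarbonate plus Triton X-100. Cells: murine Twitcher 145M-Twi expressing human G270D GALC; qHTS for activators.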
Chain of UniProt P54803 (P54803 whole entry, looked up): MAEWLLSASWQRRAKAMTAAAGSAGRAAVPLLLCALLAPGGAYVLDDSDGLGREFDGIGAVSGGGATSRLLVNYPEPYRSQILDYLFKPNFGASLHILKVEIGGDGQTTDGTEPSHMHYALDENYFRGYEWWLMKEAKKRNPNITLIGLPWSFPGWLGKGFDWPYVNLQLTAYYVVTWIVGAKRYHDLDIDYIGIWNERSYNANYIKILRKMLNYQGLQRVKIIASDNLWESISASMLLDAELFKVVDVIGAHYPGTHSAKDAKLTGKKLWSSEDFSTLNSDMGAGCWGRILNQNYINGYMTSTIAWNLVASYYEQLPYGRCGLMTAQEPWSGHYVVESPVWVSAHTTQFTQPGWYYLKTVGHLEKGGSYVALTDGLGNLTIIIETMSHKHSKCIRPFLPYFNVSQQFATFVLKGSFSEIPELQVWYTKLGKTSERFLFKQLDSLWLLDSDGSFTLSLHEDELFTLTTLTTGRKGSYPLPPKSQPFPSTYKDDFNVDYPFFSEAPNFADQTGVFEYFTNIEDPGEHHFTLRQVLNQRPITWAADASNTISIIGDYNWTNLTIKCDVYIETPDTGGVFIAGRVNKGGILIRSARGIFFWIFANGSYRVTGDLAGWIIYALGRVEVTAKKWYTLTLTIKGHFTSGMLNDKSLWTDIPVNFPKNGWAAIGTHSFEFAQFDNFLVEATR
Regarding `Cc1ccc(NC(=O)c2cnc(SCC(=O)N3CCCc4ccccc43)n(C)c2=O)cc1`, the “activation” value was inactive: -3.84%. Next, `CC(=O)Nc1c(C)nn(-c2ccccc2)c1N1CCC(C(=O)NCc2cccc(Cl)c2)CC1`: inactive: -1.2%; `COc1cc(Cl)c(NC(=O)CCc2nc3cccnc3n2-c2ccccc2)c(OC)c1`: inactive: -6.81%; `CCOc1ccc(NC(=O)CCNS(=O)(=O)c2ccc3c(c2)CCCC(=O)N3)cc1`: inactive: -25.1%.

Regarding `CCOc1ccc(N(C)S(=O)(=O)c2cc(-c3cc(C)no3)ccc2OC)cc1`, the “activation” value was inactive: -42.6%. Next, `COC(=O)c1c(NC(=O)COc2ccc(C)cc2Br)sc2c1CCCC2`: inactive: -21.9%. With `Cc1cccc(NC(=O)C2CCCN(S(=O)(=O)c3ccc4c(c3)oc(=O)n4C)C2)c1C` (configuration not stated) the figure was inactive: -7.79%. As to `CC(O)(P(=O)(O)O)P(=O)(O)O`, the “activation” value was inactive: -16.3%. Next, `CCCCCCCCCCCCCC(=O)OC(C)C`: inactive: -14.7%; `CCc1ccccc1NC(=O)CN1C(=O)C2CCCN2c2ccc(S(=O)(=O)N(CC)CC)cc21` (configuration not stated): inactive: -29.5%. On to `COc1cccc(N2C(=O)C(CC(=O)Nc3ccccc3)N(CCc3sccc3C)C2=O)c1` (configuration not stated), for which the “activation” value was inactive: -6.36%. Turning to `Cc1c(CNC2CCC(C)CC2)c(C(=O)O)c(C)n1Cc1ccc(Cl)cc1` (configuration not stated), the “activation” value was inactive: -17.4%. Next, `CCOC(=O)C(CC)Sc1ncnc2c1c(-c1ccccc1)cn2-c1ccc(OC)cc1` (configuration not stated): inactive: -11.3%. Next, `CCn1c(=O)c2cc(C(=O)NCc3ccc(F)cc3Cl)sc2c2ccccc21`: inactive: -8.47%; `Cc1ccc(C)c(N(C)C(=O)c2cc3c(s2)-c2ccccc2OC3)c1`: inactive: 11%.

Consider `Cc1cc(=O)n(CC(=O)N2CCCc3ccccc32)c2c1c(C)nn2-c1cccc(F)c1`, for which the “activation” value is inactive: 2.14%. Next, `Cc1cc(C)c(OCC(=O)N(Cc2ccc(N(C)C)cc2)CC2CCCO2)c(C)c1` (configuration not stated): inactive: -4.77%; `O=C(NCCc1ccc(F)cc1)C(=O)NCC(c1cccs1)S(=O)(=O)c1ccc(Cl)cc1` (configuration not stated): inactive: -3.84%; `CCS(=O)(=O)N1CC(=O)N(c2ccc(Cl)cc2C)C(C)(C(=O)NC2CCCCC2)C1` (configuration not stated): inactive: -14.1%. With `O=C(CSc1nnc(-c2ccccc2)c(-c2ccccc2)n1)NCCc1ccccc1` the figure was inactive: 4.34%. On to `CN1C(=O)CC(C(=O)Nc2ccc(C(=O)O)cc2)SC1=Nc1ccc(Cl)cc1` (configuration not stated), for which the “activation” value is inactive: 6.74%.

In the case of `Cn1c(=O)c2c(nc(NCCCCO)n2Cc2ccccc2Cl)n(C)c1=O`, the “activation” value was inactive: -14.9%.

Regarding `COc1ccc(C(=O)Nc2nnc(SCc3cc(=O)c4cccc(F)c4[nH]3)s2)cc1`, the “activation” value is inactive: -14.5%.

On to `CCc1cccc(C)c1NC(=O)CCCn1c(C)c2cnn(-c3ccccc3)c(=O)c2c1C`, for which the “activation” value is inactive: -9.79%. Regarding `CCCN(C(=O)Cc1nc(-c2ccc(OC)cc2)no1)c1ccccc1C`, the “activation” value is inactive: -24%. As for `Cc1cccc(N(C)C(=S)Oc2ccc3c(c2)C2CCC3C2)c1` (configuration not stated), the “activation” value is inactive: 4.31%.

Consider `CCC(C)NC(=O)Cn1c(=O)n(CCCCCC(=O)Nc2ccccc2)c(=O)c2sccc21` (configuration not stated), for which the “activation” value is inactive: -15.7%.

In the case of `CCOC(=O)c1[nH]c(C)c(CCC(=O)Nc2ccccc2OCC)c1C`, the “activation” value is inactive: -5.43%.

Take `CCCCOC(=O)c1ccc(OC(=O)c2sc3ncn(Cc4cccc(F)c4)c(=O)c3c2C)cc1`: the “activation” value was inactive: -7.46%. Turning to `CCn1c2ccccc2c2cc(CN3CCN(Cc4ccc(Cl)cc4)CC3)ccc21`, the “activation” value is inactive: -5.5%.

For `CC(=O)c1ccc(NC(=O)C(C)n2nc(-c3ccccc3)ccc2=O)cc1` (configuration not stated), the “activation” value was inactive: -10.8%.

As for `CCN(CC)CCCNC(=O)Cn1ncc2c3ccccc3n(Cc3ccccc3)c2c1=O`, the “activation” value was inactive: -1.97%. With `CCN(CC)c1ccc(NS(=O)(=O)c2cc(-c3onc(C)c3C)ccc2OC)c(C)c1` the figure was inactive: -4.11%; with `Cc1ccc2c(=O)cc(C(=O)Nc3ccc(S(=O)(=O)N4CCCCC4C)cc3)oc2c1C` (configuration not stated), inactive: -8.72%. In the case of `CC(=O)Nc1cc(C(=O)NCc2ccc(F)cc2)ccc1S(=O)(=O)c1ccc(C)cc1`, the “activation” value was inactive: -8.36%. With `COc1cc2[nH]c(=O)[nH]c(=O)c2cc1OC` the figure was inactive: -12.8%. On to `COc1cccc(-c2nnc(SCC(=O)N(C)c3ccccc3)o2)c1`, for which the “activation” value is inactive: -17.8%. Regarding `Cc1cccc(C)c1NC(=O)Cn1cc(C(=O)c2ccco2)c2ccccc21`, the “activation” value was inactive: -17.8%. Next, `O=C(Cn1ncc2c3ccccc3n(Cc3cccc(Cl)c3)c2c1=O)NCCCc1ccccc1`: inactive: -15%; `COc1ccc(-c2c(C)nn3c(-c4ccccc4)cc(C)nc23)cc1OC`: inactive: -26%. With `CCc1nc(Nc2ccc(F)c(Cl)c2)c2c3c(sc2n1)CCCC3` the figure was inactive: -4.71%; with `Cc1cc(C)n(C(C)CC(=O)Nc2cccc(C#N)c2)n1` (configuration not stated), inactive: -17.6%; with `Cc1ccc2oc(-c3ccc(Cl)cc3)c(O)c(=O)c2c1`, inactive: -7.26%. Next, `CCOc1ccc(-c2nn(-c3ccc(F)cc3)c3c2cnc2ccc(F)cc23)cc1`: inactive: 0.404%; `Cc1cc(O)c(C(c2ccccc2)N2CCN(c3ccccc3)CC2)c(=O)n1Cc1ccco1` (configuration not stated): inactive: -16%. Turning to `Cc1nc2cc(C(=O)NCCC3=CCCCC3)ccc2n1-c1ccc(Br)cc1`, the “activation” value was inactive: -13.8%. Next, `Cc1ccc(-n2c(=O)c3ccc(C(=O)NCc4ccccc4Cl)cc3n(CC(=O)Nc3cccc(Cl)c3)c2=O)cc1`: inactive: -1.56%; `Cc1cc(C)c(NC(=O)CCN2C(=O)c3ccccc3Sc3ncccc32)c(C)c1`: inactive: -20.7%. With `CCc1nn(CC(=O)NCC(C)c2ccccc2)c(=O)c2cc3occc3n12` (configuration not stated) the figure was inactive: 15.2%; with `Cc1ncc(COP(=O)(O)O)c(C=O)c1O`, inactive: -4.92%. On to `CCOc1ccc(C(=O)NCc2nnnn2-c2ccc(C)c(C)c2)cc1OCC`, for which the “activation” value was inactive: -7.32%. Regarding `CN(Cc1ccccc1)C(=O)C1CCN(S(=O)(=O)c2ccc3c(c2)oc(=O)n3C)CC1`, the “activation” value was inactive: -8.76%. Consider `CCOC(=O)CNC(=O)CSc1cn(CC(=O)N2CCCCCC2)c2ccccc12`, for which the “activation” value is inactive: -24.6%. With `Cc1cccc(C(=O)Nc2nnc(S(=O)(=O)N(C)Cc3ccc(Cl)cc3)s2)c1` the figure was inactive: 2.04%.

As to `O=C1COc2ccc(-c3cc(-c4ccc(Cl)cc4)c4c(n3)-c3ccccc3OC4)cc2N1`, the “activation” value was inactive: -1.46%. Next, `CCCCCNC(=O)c1ccc2c(c1)ncn2-c1cccc(C)c1`: inactive: -8.82%; `COC(=O)c1cc2c(cc1NC(=O)c1cnn(-c3ccccc3)c1-n1cccc1)OCO2`: inactive: -12.2%. In the case of `CSc1nc(Nc2ccc(C)cc2C)cc(-c2ccccc2)n1`, the “activation” value is inactive: -7.87%. Consider `COc1ccccc1CN1CCC(CNS(=O)(=O)c2cc(-c3onc(C)c3C)ccc2OC)CC1`, for which the “activation” value was inactive: -11.2%. Regarding `Cc1nn(-c2ccccc2)c(OC(=O)c2cccc(Br)c2)c1S(=O)(=O)c1ccccc1`, the “activation” value is inactive: -20.4%.

Consider `N#Cc1nc(-c2ccc(COc3ccccc3)o2)oc1NCc1cccnc1`, for which the “activation” value was inactive: -11%. With `CSc1ccc(CCNC(=O)C2=C(C)C(=O)OC23CCCCC3)cc1` the figure was inactive: -13.8%; with `COc1ccc(NC(=O)CN2C(=O)C(C)(C)c3ccccc32)cc1Cl`, inactive: -17.1%; with `Cc1cccc(Cn2c(=O)n(CC3CCC(C(=O)NC(C)C)CC3)c(=O)c3sccc32)c1` (configuration not stated), inactive: -10.4%. Consider `COc1cccc(C2CC(=O)Nc3cc(OC)c(OC)c(OC)c32)c1OC(C)C` (configuration not stated), for which the “activation” value was inactive: -7.68%. For the compound `COc1cc(CNC(=O)c2sc3ncccc3c2-n2cccc2)cc(OC)c1OC`, the “activation” value is inactive: -4.41%. On to `CCC1NC(=O)c2cc(S(N)(=O)=O)c(Cl)cc2N1` (configuration not stated), for which the “activation” value is inactive: -8.13%. With `Cc1cccc(N2CCN(C(=O)Cn3ncc4c3-c3cc(C)ccc3OC4)CC2C)c1` (configuration not stated) the figure was inactive: -9.81%; with `CC(=O)Oc1ccc(C2(c3ccc(OC(C)=O)cc3)C(=O)Nc3ccccc32)cc1`, inactive: -14.4%; with `COC(=O)c1ccc(OCC2c3cc(OC)c(OC)cc3CCN2C(=O)c2ccccc2C)cc1` (configuration not stated), inactive: -17.7%. Next, `Cc1nc(N2CCCC2)c2c(C(=O)N3CCN(c4ccc(F)cc4)CC3)c(C)oc2n1`: inactive: -5.09%; `Cc1ccc(-c2nnc(Nc3ccc(Br)cc3)c3ccccc23)cc1S(=O)(=O)NCC1CCCO1` (configuration not stated): inactive: -17.2%; `COc1cccc(-c2nc(SCC(=O)NCC3CCCO3)c(-c3ccc(C)cc3)[nH]2)c1` (configuration not stated): inactive: -18.4%.

Consider `COc1ccc(NC(=O)Cn2c(=O)n(CCC(C)C)c(=O)c3cccnc32)cc1Cl`, for which the “activation” value is inactive: -9.62%. In the case of `CCOc1ccc(C2CC(=O)NC(NC(=O)c3ccc(C)cc3)=N2)cc1` (configuration not stated), the “activation” value is inactive: -20.2%. In the case of `CCOc1ccc(NC(=O)c2cc3c(C)nn(-c4ccccc4)c3s2)cc1`, the “activation” value is inactive: -10.2%. Next, `Cc1ccc(OCC(=O)N(Cc2ccc(Cl)cc2)Cc2ccco2)cc1C`: inactive: -9.05%; `Cc1cc(C)cc(NC(=O)c2cc(C)nc3c2c(C)nn3-c2ccccc2)c1`: inactive: -20.7%. With `Cc1cccc(Cn2cc(/C=C(/C#N)C(=O)Nc3cccc(Cl)c3)c3ccccc32)c1` the figure was inactive: -18.5%; with `CCN(C(=O)c1cc2c(=O)oc3ccccc3c2s1)c1ccc(C)c(C)c1`, inactive: -10.4%. Next, `Cc1ccc(Cn2c(C(=O)O)c(CNC3CCCCC3)c3ccc(C)cc32)cc1`: inactive: -2.11%. On to `CC(C)NC(=O)C1CCC(Cn2c(=O)c3sccc3n(CC(=O)N3CCCC3)c2=O)CC1` (configuration not stated), for which the “activation” value was inactive: -6.26%.

As to `Cc1ccccc1Nc1cc(C(=O)NC2CCCC2)c2ccccc2n1`, the “activation” value was inactive: -4.64%. With `COc1ccc(NC(=O)c2ccc3c(=O)n4nc(Nc5ccccc5C)sc4nc3c2)cc1Cl` the figure was inactive: -25.1%; with `Cc1ccccc1C(=O)Nc1ccccc1OCc1cc(=O)n2ccccc2n1`, inactive: -9.56%; with `Cc1ccc(C(=O)NCC(c2ccc3c(c2)OCO3)N2CCN(c3ccc(F)cc3)CC2)cc1` (configuration not stated), inactive: -9.14%.

For the compound `CCOc1ccccc1NC(=O)Cn1c(=O)n(Cc2nc(C)no2)c(=O)c2ccccc21`, the “activation” value was inactive: -11.2%.

With `Clc1ccccc1CNc1ncnc2c1nc1n2CCCC1`, the “activation” value was inactive: -12.5%.

Regarding `CCN(CC)c1nc2c(S(=O)(=O)c3ccccc3)nnn2c2ccc(Cl)cc12`, the “activation” value is inactive: -9.33%. With `Cc1cccc(CS(=O)(=O)Cc2ccc(C(=O)NCc3ccccc3)o2)c1` the figure was inactive: -14.5%; with `Cc1cccc(-c2nc(S(=O)(=O)c3ccc(Cl)cc3)c(N3CCCCCC3)o2)c1`, inactive: -12%. Regarding `CCOc1ccc(CCNC(=O)c2c(C)oc3ncn(CC(C)C)c(=O)c23)cc1`, the “activation” value was inactive: -16.4%. Next, `O=C(NCc1ccc(F)cc1)C1CCN(S(=O)(=O)c2ccc3c(c2)CCCN3C(=O)C2CCC2)CC1`: inactive: 6.43%; `Cc1ccccc1C(=O)Oc1cc(-c2ccc3c(c2)OCO3)cc(=O)c2c(C)oc(C)c12`: inactive: -6.04%; `O=C(COc1ccccc1Cl)N(Cc1ccco1)Cc1ccco1`: inactive: -7.76%. With `CN(C)c1ccc(NC(=O)CSc2nc(-c3ccco3)cc(C(F)(F)F)n2)cc1`, the “activation” value was inactive: -14.2%. `COc1ccccc1N1CCN(S(=O)(=O)c2c(C)sc3ncn(CC(=O)Nc4ccc(C(C)C)cc4)c(=O)c23)CC1`: the “activation” value is inactive: -19.2%.
